The list shows a part of the results.
Tests used:
Experiment in all cases: glycan array binding signal (z-score within array); higher = stronger binding
Settings in all cases: glycan notation: IUPAC condensed, linker removed; mutation: Y228W
GalNAc(b1-4)GlcNAc = molecular target: GalNAc(b1-4)GlcNAc
Procedure, shortened: (§1)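 Arrays were curated from the Consortium for Functional Glycomics database, 3228 in total, and kept only where the protein sequence was available. Binding is expressed as a within-array Z-score. This score was averaged across arrays of the same protein sequence at different concentrations or buffers and across linkers, and negative values can be read as non-binding.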

[1] = molecular target: GalNAc(b1-4)GlcNAc(b1-2)Man
Procedure, shortened: as §1

[2] = molecular target: GalNAc(b1-4)GlcNAc(b1-2)Man(a1-3)[GalNAc(b1-4)GlcNAc(b1-2)Man(a1-6)]Man(b1-4)GlcNAc(b1-4)GlcNAc
Procedure, shortened: as §1

[3] = molecular target: GalNAc(b1-4)GlcNAc(b1-3)GalNAc(b1-4)GlcNAc
Procedure, shortened: as §1

GalNAc(b1-4)GlcNAc6S = molecular target: GalNAc(b1-4)GlcNAc6S
Procedure, shortened: as §1

GalNAc(b1-6)GalNAc = molecular target: GalNAc(b1-6)GalNAc
Procedure, shortened: as §1

GalNAc3S(b1-4)GlcNAc = molecular target: GalNAc3S(b1-4)GlcNAc
Procedure, shortened: as §1

GalNAc3S(b1-4)GlcNAc3S = molecular target: GalNAc3S(b1-4)GlcNAc3S
Procedure, shortened: as §1

[4] = molecular target: GalNAc3S(b1-4)[Fuc(a1-3)]GlcNAc
Procedure, shortened: as §1

GalNAc4S6S(b1-4)GlcNAc = molecular target: GalNAc4S6S(b1-4)GlcNAc
Procedure, shortened: as §1

GalNAc6S(b1-4)GlcNAc = molecular target: GalNAc6S(b1-4)GlcNAc
Procedure, shortened: as §1

Glc(a1-4)Glc = molecular target: Glc(a1-4)Glc
Procedure, shortened: as §1

[5] = molecular target: Glc(a1-4)Glc(a1-4)Glc(a1-4)Glc
Procedure, shortened: as §1

Glc(a1-6)Glc(a1-6)Glc = molecular target: Glc(a1-6)Glc(a1-6)Glc
Procedure, shortened: as §1

[6] = molecular target: Glc(a1-6)Glc(a1-6)Glc(a1-6)Glc
Procedure, shortened: as §1

Glc(b1-4)Glc = molecular target: Glc(b1-4)Glc
Procedure, shortened: as §1

Glc(b1-6)Glc = molecular target: Glc(b1-6)Glc
Procedure, shortened: as §1

GlcA(b1-3)Gal = molecular target: GlcA(b1-3)Gal
Procedure, shortened: as §1

GlcA(b1-3)GlcNAc = molecular target: GlcA(b1-3)GlcNAc
Procedure, shortened: as §1

GlcA(b1-6)Gal = molecular target: GlcA(b1-6)Gal
Procedure, shortened: as §1

[7] = molecular target: GlcA3S(b1-3)Gal(b1-4)GlcNAc(b1-2)Man
Procedure, shortened: as §1

[8] = molecular target: GlcA3S(b1-3)Gal(b1-4)GlcNAc(b1-3)Gal(b1-4)Glc
Procedure, shortened: as §1

[9] = molecular target: GlcNAc(a1-3)Gal(b1-4)GlcNAc
Procedure, shortened: as §1

[10] = molecular target: GlcNAc(a1-4)Gal(b1-3)GlcNAc
Procedure, shortened: as §1

[11] = molecular target: GlcNAc(a1-4)Gal(b1-4)GalNAc
Procedure, shortened: as §1

[12] = molecular target: GlcNAc(a1-4)Gal(b1-4)GlcNAc
Procedure, shortened: as §1

[13] = molecular target: GlcNAc(a1-4)Gal(b1-4)GlcNAc(b1-3)Gal(b1-4)Glc
Procedure, shortened: as §1

[14] = molecular target: GlcNAc(a1-4)Gal(b1-4)GlcNAc(b1-3)Gal(b1-4)GlcNAc
Procedure, shortened: as §1

[15] = molecular target: GlcNAc(a1-4)Gal(b1-4)GlcNAc(b1-3)Gal(b1-4)GlcNAc(b1-3)Gal(b1-4)GlcNAc
Procedure, shortened: as §1

[16] = molecular target: GlcNAc(a1-4)Gal(b1-4)GlcNAc(b1-3)Gal(b1-4)[Fuc(a1-3)]GlcNAc(b1-3)Gal(b1-4)[Fuc(a1-3)]GlcNAc
Procedure, shortened: as §1

B1: Epa1-NP-mutant-Y228W (Candida glabrata), Q6VBJ0 (protein)
chain: MILNPALFLNKCVCIYTTLILLLLTNGGYATSSNDISLASKDPTTFPLGCSPDITTPKKGLSMELYSYDFRKKGSYPCWDAAYLDPNYPRTGYKSHRLLAKVDGVTGNINFYYHATKGCTPQLGHLPASYNYPKPLTMTNFTMLLYGYFRPKVTGFHTFTISADDLLFVNFGAGNAFDCCRRDSSADHFGNYQAYAIWGSKTAKDELTVHLDAGVYYPIRLFYNNREWDGALSFTFKTESNENTVSDFSEYFFSLDDTEEGCPGLISYDSSCASVKTSKIIGIDYHTETPNENLVPITKTIYHLGIPCTGTTTTPLCGSGFYDPLANKCVTINTSSTSSVTKTTSHTTSKEVSFHSSISSQKTLIPKSIPSPYGPIKSQSIPTEMETSSEISSSEYAFSDVISTPSHSPYTKKHSSLNSSSYTSTVIHSLTSYSISQGIFSTSLSEQNITSKSSTDKFSTATSMSNNITQSSIIISQFSTNNENYTTTSMHTSSDKISTETLNNSISTTTSILFSNSSTILKNNTTIISSDKDTHYHPVNPTIVCSTNKTEIICASITQPSISNSNNHWSSSVLKFNSTTVRSTLPSSAGSNETSINVPFSSSTESNTSTSSTSTSNSKMVRSTLPSSAGSNETSISVPFSSSTESNTSTSSTSTSNSKMVRSTLPSSAGSNETSINVPFSSSTESNTSTSSTSTSNSKTVRSTPFSSAGIIMTSLSQRNNKSASSYASSNSKCYNTADSCRKVHSTPSYLLTSSYTSEGVDYDCSLVSTKLKINDTNCVNNKHTTKSCLKTSVTTTIPTLEIKTARKSSSNTIGLHSYPTSSPNKSISSAPIIGYISSFKTIKTASPSYQTSDLTTITTITSLNNPGSTAVENTHESNDKSRKTSSNDISSKHSVIKETKDAVESSNKSHQTNTLKCSSIIIASSSHNSYESLGGTTLTLTLSKVYSPQNNDTLPFLEISEVNPSRTVLPESSKMMQYLTSTEERNKTARNTIATNIVSISTFHFEGEGNAIRMGYTQLLLMLIGIIVMNIGT
In the case of B1, the “glycan array binding signal (z-score)” value (GalNAc(b1-4)GlcNAc) is reported as -0.199, the “glycan array binding signal (z-score)” value [1] is reported as -0.134 and the “glycan array binding signal (z-score)” value [2] is reported as 0.126. The “glycan array binding signal (z-score)” value [3] was -0.329, the “glycan array binding signal (z-score)” value (GalNAc(b1-4)GlcNAc6S) was -0.29 and the “glycan array binding signal (z-score)” value (GalNAc(b1-6)GalNAc) was -0.478. For the same binder, the “glycan array binding signal (z-score)” value (GalNAc3S(b1-4)GlcNAc) was -0.128, the “glycan array binding signal (z-score)” value (GalNAc3S(b1-4)GlcNAc3S) was -0.217 and the “glycan array binding signal (z-score)” value [4] was -0.325. For the same binder, the “glycan array binding signal (z-score)” value (GalNAc4S6S(b1-4)GlcNAc) was -0.279, the “glycan array binding signal (z-score)” value (GalNAc6S(b1-4)GlcNAc) was -0.043 and the “glycan array binding signal (z-score)” value (Glc(a1-4)Glc) was -0.29. For the same binder, the “glycan array binding signal (z-score)” value [5] was -0.151, the “glycan array binding signal (z-score)” value (Glc(a1-6)Glc(a1-6)Glc) was -0.164 and the “glycan array binding signal (z-score)” value [6] was -0.307. The “glycan array binding signal (z-score)” value (Glc(b1-4)Glc) was -0.326, the “glycan array binding signal (z-score)” value (Glc(b1-6)Glc) was -0.236 and the “glycan array binding signal (z-score)” value (GlcA(b1-3)Gal) was -0.209. The “glycan array binding signal (z-score)” value (GlcA(b1-3)GlcNAc) was -0.206, the “glycan array binding signal (z-score)” value (GlcA(b1-6)Gal) was 0.341 and the “glycan array binding signal (z-score)” value [7] was -0.362. For the same binder, the “glycan array binding signal (z-score)” value [8] was -0.379, the “glycan array binding signal (z-score)” value [9] was -0.131 and the “glycan array binding signal (z-score)” value [10] was -0.163. The “glycan array binding signal (z-score)” value [11] was -0.487, the “glycan array binding signal (z-score)” value [12] was -0.185 and the “glycan array binding signal (z-score)” value [13] was -0.369. The “glycan array binding signal (z-score)” value [14] was -0.327, the “glycan array binding signal (z-score)” value [15] was -0.335 and the “glycan array binding signal (z-score)” value [16] was 0.412.
